Measured values published in the supplement of paper PMC3724861.
The other results are listed elsewhere or left out.

test system: T1, Caupolican (Caup) homeodomain DNA-binding domain; test: PBM E-score (8-mer, recovered from the published 9-mer minima) (E-score (dimensionless, -0.5 to 0.5)); Drosophila protein; higher = stronger relative binding preference, active = 0.31 or more
T1 sequence: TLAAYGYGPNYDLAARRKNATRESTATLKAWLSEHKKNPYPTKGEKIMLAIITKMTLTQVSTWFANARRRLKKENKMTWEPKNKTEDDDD
In short: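 Caup's homeodomain DNA-binding domain (residues 214-303) was made by in vitro transcription and translation and applied at 100 nM to custom-designed protein binding microarrays. Each value is an enrichment score that gives relative binding preference for a short DNA word, with higher meaning stronger. The 8-mer values were recovered from published 9-mer scores, each of which was the minimum of its two constituent 8-mer scores. A cutoff of 0.31 marks candidate sites.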

Sequence | PBM E-score
CAAACACG | active: 0.315
GACTAGAC | inactive: 0.0168
CAGCCCGC | inactive: -0.267
ACGTGCAA | inactive: 0.0387
GTTACGAA | inactive: 0.107
GAAACCAC | inactive: -0.00015
CTTCACCC | inactive: -0.173
AAATTCTT | inactive: 0.0211
TACAAGGA | active: 0.352
GGCTCCTA | inactive: -0.245
AATCCGGT | inactive: -0.0128
CGATGGCG | inactive: -0.208
CAGGGGAC | inactive: -0.193
ACCTCCCG | inactive: -0.142
AACGTCGC | inactive: -0.122
AAGCCGGA | inactive: -0.0668
CTTGAACA | inactive: 0.201
CAAGAGCC | inactive: -0.115
ATGTAATA | active: 0.383
GCGGACCA | inactive: -0.0889
TTGAGAAA | inactive: 0.0975
CTGTAAGC | inactive: 0.0746
CTGTGGAA | inactive: -0.00671
CAAGATCG | inactive: 0.0516
GGTGCATA | inactive: -0.0382

Sequence | PBM E-score
GCTAATCC | inactive: -0.0113
CACTGGGC | inactive: -0.0963
CGCAGCTA | inactive: -0.18
ATATACCG | ≥ 0.13
AGTACACC | inactive: 0.265
CTTTCACC | inactive: -0.0159
TAATGCGA | inactive: 0.0601
ACAGCTTG | inactive: 0.148
ACTCCACT | inactive: -0.0287
CTGCCAGA | inactive: -0.151
CCACTCTA | inactive: -0.0132
GACACTCA | inactive: 0.0949
AATTTTCA | inactive: 0.102
ACCGTCCG | inactive: -0.169
CTGCTGGC | inactive: -0.302
AAATATTT | inactive: 0.108
CACACCGG | inactive: -0.087
CACACGCA | inactive: 0.0417
CAGTCACG | inactive: -0.038
CCTTATAC | inactive: -0.0299
CCTGGTAG | inactive: -0.0715
GGTAACAC | inactive: 0.242
CAGTGGTC | inactive: -0.0613
CCGGTGCG | inactive: -0.209
GGTCCTGA | inactive: -0.121

Sequence | PBM E-score
CAAACCAG | ≥ 0.123
CCCGAACC | inactive: -0.272
CCTAAGCC | inactive: -0.224
CCTCAATA | inactive: -0.07
TCCAAAGA | inactive: 0.0351
CTACTGAG | inactive: -0.0698
ATTACTGA | inactive: 0.142
ACGCACCG | inactive: -0.0637
CGTTGCGA | inactive: -0.0352
ATGACCTG | inactive: 0.0807
AAGAAAAA | inactive: 0.0173
GCGCTGAA | inactive: -0.198
GGCGTCTA | inactive: -0.168
TTAGACAA | inactive: 0.206
GGTTGTGA | inactive: 0.0824
GGACTACC | inactive: -0.0469
ACGCCCAC | inactive: -0.052
AAGATGTG | inactive: 0.146
AGGTGTAC | inactive: 0.225
AGTTCCAT | inactive: 0.0606
TATCGTGA | inactive: 0.0294
AAACACCT | inactive: 0.171
GAGTACCA | inactive: 0.165
AGGCATTC | inactive: -0.139
ACATCTCG | inactive: 0.155

Sequence | PBM E-score
CCTGCTAG | inactive: -0.0884
AAGGATGC | inactive: -0.0916
ATCACTAA | inactive: 0.0875
CCCGCCCC | inactive: -0.229
CCATGCGA | inactive: -0.0437
AAGAATCC | inactive: -0.0535
CTGATCGC | inactive: 0.0632
ATGCGGTC | inactive: 0.0131
AATGAGTG | inactive: 0.0777
GAAGCGCC | inactive: -0.182
TAATATAA | inactive: 0.23
ACTATGCA | inactive: 0.109
TAGCTTAA | inactive: 0.0299
GACGCAAA | inactive: -0.0983
GCTGACTA | inactive: -0.102
GCCTATGA | inactive: -0.0331
ACCATCTA | inactive: -0.0183
AGTTCAAG | inactive: 0.0481
CCATACTC | inactive: -0.068
CATTTGCA | inactive: 0.0904
AAGTTGAA | inactive: -0.0125
AGAACCTA | inactive: 0.0236
ATGTCTCG | inactive: 0.173
CGAGCTTC | ≥ 0.016
AGCGCGCA | inactive: -0.06

Sequence | PBM E-score
AATCCCTC | inactive: -0.119
ACTATAGA | inactive: 0.097
ACCCCTGG | inactive: -0.225
CCATACAG | inactive: 0.0994
AATTGAAC | inactive: 0.0648
GAGCCCCA | inactive: -0.243
AGCGGCAA | inactive: -0.0866
ACCACCGG | inactive: -0.198
CACCACTC | inactive: -0.0668
CAGCAAGC | inactive: -0.0215
ACTCACTC | inactive: -0.0448
GTCACGCA | inactive: 0.0083
GGTAAACC | inactive: -0.0609
AATCCAAT | inactive: 0.0568
GCCATAAA | inactive: -8e-05
CCCAAGAA | inactive: -0.0904
GTTATAAC | inactive: 0.0998
ATAACTCG | inactive: 0.0819
AACAGAGT | inactive: 0.116
GTACGTAA | inactive: 0.182
AATGCGAA | inactive: -0.00501
GATGGATA | inactive: 0.00149
TAAGGCGA | inactive: -0.0793
ACCTTACT | inactive: 0.0186
CGCGTTCC | inactive: -0.0957

Sequence | PBM E-score
ATTCGACC | inactive: -0.0381
TGTAATAA | inactive: 0.276
CTGATGAA | inactive: 0.019
AACCTGTC | inactive: 0.162
ATAGCTCG | inactive: -0.0531
CTACCAGA | inactive: 0.0647
ACGACACA | inactive: 0.26
ATAGCCAT | inactive: 0.0738
AGTTGGGA | inactive: -0.064
GAGTGAGA | inactive: -0.0286
CGCAGCCA | inactive: -0.176
CGCCGAAC | inactive: -0.111
GTTTGCGA | inactive: 0.148
ATGCGTAC | inactive: 0.154
TCACAAGA | inactive: 0.131
GCAGTGCC | inactive: -0.267
ATATGTCA | inactive: 0.305
CAAGGTGA | inactive: 0.0664
ATAACCGA | inactive: -0.00209
TGGAACCA | inactive: 0.0106
CGGCAGAA | inactive: -0.215
GGTCACGA | inactive: 0.0132
ACGAACCA | ≥ 0.0454
CCATTTGC | inactive: -0.0285
GCATCTGA | inactive: -0.0536

Sequence | PBM E-score
CAGCGAGG | inactive: -0.199
AAACGATT | inactive: 0.0852
CAAGTAAG | inactive: 0.0621
GCCTATAC | inactive: -0.0758
AGATTCCT | inactive: -0.0236
GAGCGCTA | inactive: -0.152
AGTGACAT | active: 0.354
GCCAGGAA | inactive: -0.0742
CAAAGCTC | inactive: -0.162
CCAAACAG | inactive: 0.0978
GAGTAGAC | inactive: 0.0351
AACGTAGG | inactive: -0.119
AACACGTA | active: 0.316
GACCGTCC | inactive: -0.258
CCATAGAC | inactive: -0.0106
GTTATCCA | inactive: 0.0936
CCAGTTAA | inactive: 0.0936
AATTCATA | inactive: 0.0488
ACCGAGAA | inactive: -0.027
CTCCTAAC | inactive: 0.0612
CTGTTTAC | inactive: 0.17
ACTCTGCC | inactive: -0.111
AAAAGACA | inactive: 0.184
ACGCACTG | inactive: -0.0886
GAAGCATA | inactive: 0.0668

Sequence | PBM E-score
GCTATTTA | inactive: 0.187
ATGACGGA | inactive: 0.0204
ACAGCAGG | inactive: 0.0384
CATGGAAA | inactive: 0.148
AATCATCA | inactive: 0.161
CCCATTAA | inactive: 0.0805
CCACGCGG | inactive: -0.268
GAGTGGGA | inactive: -0.0746
ATAGCGCA | inactive: -0.0213
CGTGTATA | active: 0.321
TACGATCA | inactive: 0.0958
GCGCAAGA | inactive: -0.0905
ACAATCAT | inactive: 0.204
ATGTCTTG | inactive: 0.237
AAGCGAAG | inactive: -0.104
AGTGAATG | inactive: 0.0689
CTCTGAGA | inactive: -0.109
GACTCTTA | inactive: 0.0374
CCCTGAAC | inactive: 0.132
GAGCTAGA | inactive: -0.156
AACAAAAG | inactive: 0.122
CATCCAGC | inactive: -0.0387
CCATGGCC | inactive: -0.247
AGGCGTCC | inactive: -0.139
GGCGGAAC | inactive: -0.1

Sequence | PBM E-score
AGACCTAT | inactive: 0.0768
CCTATTGA | inactive: 0.0195
AAGGCCAA | inactive: -0.213
AACATCAT | inactive: 0.292
AAGCCCAT | inactive: -0.0824
CTGCCTTC | inactive: -0.202
GCTCACCC | inactive: -0.215
CTTACTAA | inactive: 0.135
GATGAGAC | inactive: -0.0355
CGGGTCAG | inactive: -0.135
CGCGAAAG | inactive: -0.127
AGTCATCG | inactive: -0.0399
TCGTGTAA | active: 0.363
ACTAACCC | inactive: 0.0323
GACGGAGA | inactive: -0.0597
ATTGCCCA | inactive: -0.0369
CTGAGAAG | inactive: -0.128
CCTACACC | inactive: 0.0683
GCCTTAGA | inactive: -0.125
CATATGGA | inactive: 0.0301
CGCCTATA | inactive: -0.118
GAGCCGAC | inactive: -0.2
